Results published in PubChem BioAssay AID1345082 (National Center for Advancing Translational Sciences (NCATS), 2018).
In all, about 94,000 compounds went through this assay and about 4,000 (4.3%) were called active. The inconclusive results got no clear call from the source; some entries with a clear call stand among them for comparison. The call rests on the fitted dose curve; in most records, active means well fitted inhibition curve with a large enough effect; inconclusive means small, poorly fitted or top-dose-only effect; inactive means no such curve, though single readings can be large or run the other way. Potencies beside an inconclusive call are fits to weak or partial responses and may not hold up.

assay: Cytotoxic Profiling in NIH 3T3 Cell Line of Diverse Libraries Using Quantitative High-Throughput Screening; settings: NIH 3T3 viability, CellTiter-Glo ATP luminescence, 48-72 h; series mostly up to 96.7 µM; further: nearly all actives have a fitted effect of over 55% in size
In short: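 Viability of NIH 3T3 cells after 48 or 72 hr compound treatment at 37 °C was assessed by CellTiter-Glo, with luminescence imaged following a 10 min room-temperature step.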
Potency means the concentration at half of the fitted maximal effect; tags describe the fitted curve by direction and shape.

Structure (SMILES)	Potency
Cc1nc2c(c(-c3ccc(O)cc3)n1)CN(Cc1ccsc1)CCC2	inconclusive: 44.7 µM [inhibitor, partial curve, poor fit]
CN1CCN([C@H]2CCN(C(=O)NCCc3ccccc3)C[C@H]2CCC(=O)O)CC1	inactive
COc1cccc(CC(=O)N2CCCOCCNC(=O)CC2)c1	inactive
COc1ccc(CN2CC[C@H](CNC(=O)C3CC3)[C@H](N(C)C)C2)c(OC)c1	inactive
COC1CCCN(c2cc(-c3ccsc3)nc3c(C)noc23)C1 (stereo not given)	inconclusive: 50.1 µM [inhibitor, partial curve, poor fit]
CN(Cc1ccc(-c2ccccc2)cc1)C(=O)C(C)(C)C	inconclusive: 50.1 µM [inhibitor, partial curve]
NC(=O)c1ccc(Nc2cnc3ccc(-c4ccccc4)nn23)cc1	active: 28.2 µM
Cc1cc(C(=O)N2CCCN(c3ccnc4ccnn34)CC2)ccc1Cl	inconclusive: 50.1 µM [inhibitor, partial curve, poor fit]
Cc1cccc(OCCc2noc(C3CN(C(=O)c4ccsc4)C3)n2)c1	inconclusive: 50.1 µM [inhibitor, partial curve, poor fit]
COCCC1(C(=O)O)CCCN(C(=O)CCc2c(C)n[nH]c2C)C1 (stereo not given)	inactive
CCn1cc(S(=O)(=O)N2C[C@@H](C(N)=O)[C@H](c3nc(C)no3)C2)cn1	inactive
Cc1cnc(CCNS(=O)(=O)c2cccc(F)c2)n1Cc1ccccc1	inconclusive: 50.1 µM [inhibitor, partial curve, poor fit]
COc1ccc(-c2nc(C3CC(=O)N(c4ccc(C)cc4)C3)no2)cc1 (stereo not given)	inconclusive: 50.1 µM [inhibitor, partial curve, poor fit]
Cc1nc(-c2cn(C3CCCN(C(=O)c4ccc(F)c(F)c4)C3)nn2)no1 (stereo not given)	inactive
O=C(C1CC2(CCNCC2)CN1)N1CCCN(Cc2ccc(F)cc2)CC1 (stereo not given)	inactive
C[C@H]1CCCN1C(=O)c1nnc(CNCc2ccc3c(c2)OCO3)n1-c1cccnc1	inconclusive: 89.1 µM [inhibitor, partial curve]
CNC(=O)c1cnc2c(c1)N(C(=O)Cc1ccc(C(C)C)cc1)CCC2	inconclusive: 50.1 µM [inhibitor, partial curve, poor fit]
CC(C)(C)C(O)CN1CCC(=O)N(Cc2ccccc2)Cc2sccc21 (stereo not given)	inconclusive: 79.4 µM [inhibitor, single point]
Cc1ccccc1C(=O)N1CCCC(N2C(=O)c3c(c(C)nn3-c3ccccc3)C2C(C)C)C1 (stereo not given)	active: 39.8 µM
COc1ccc([C@@H]2CN(c3ncccc3C#N)C[C@H]2NC(C)=O)cc1	inactive
O=C(CCCc1ccccc1)NCC1CCCCC(=O)N1 (stereo not given)	inactive
CCCCn1ccnc1C1CCCN(C(=O)c2ncc(F)cc2F)C1 (stereo not given)	inactive

Structure (SMILES)	Potency
O=C(NC1CCN(c2cc(-c3ccccc3)[nH]n2)C1)c1ccc2cc[nH]c2c1 (stereo not given)	inconclusive: 44.7 µM [inhibitor, partial curve, poor fit]
COc1ccc(NC(=O)O[C@@H]2CC[C@]3(C)C(CC[C@@H](O)[C@H]3CC(=O)NCc3ccc4c(c3)OCO4)[C@]2(C)CO)cc1 (stereo not given in full)	active: 44.7 µM
Cc1cccc(N2Cc3c(NC4CCCC4)ncnc3N(C)CC2=O)c1	inconclusive: 50.1 µM [inhibitor, single point]
Cc1ccc(NC(=O)c2ccc(Cn3ccn4nc5c(c4c3=O)CCCC5)cc2)cc1	inconclusive: 22.4 µM [inhibitor, full curve]
COc1ccc(CNC(=O)c2cc(-c3cccc(C(F)(F)F)c3)c3nncn3n2)cc1	inactive
COc1ccccc1CC(=O)N1CCCc2ncc(C(=O)NCc3cccc(Cl)c3)cc21	inconclusive: 70.8 µM [inhibitor, single point]
COc1ccc(CCNC(=O)c2cc(-c3ccc(OC)cc3)nc3c2cnn3C)cc1	inconclusive: 50.1 µM [inhibitor, partial curve, poor fit]
COc1ccc(-c2cnc3[nH]cc(CC(=O)N4CCC(OC)CC4)c3c2)cc1	inconclusive: 17.8 µM [inhibitor, full curve, poor fit]
COc1cccc(NC(=O)C2(C)COCc3cnc(Nc4ccccc4)nc32)c1 (stereo not given)	active: 79.4 µM
C[C@H]1CCCN1C(=O)c1nnc(COc2cccc(C(F)(F)F)c2)n1-c1ccccc1	inconclusive: 89.1 µM [inhibitor, partial curve]
NC(=O)c1cccc(-c2n[nH]c3c2CC(=O)N(CC2CCOCC2)C3)c1	inconclusive: 100 µM [inhibitor, single point]
COc1ccccc1-c1cnc(Nc2cccc(N[S+](C)(=O)[O-])c2)c2c1CCO2	active: 20 µM
NC(=O)c1nnn([C@H]2C[C@H]3C(=O)N4CC[C@H](NC(=O)c5cccs5)[C@H]4C(=O)N3C2)c1C(N)=O	inactive
O=C(c1ccc(Cl)cc1)N1CC2(CCN(CC3CC3)CC2)Cc2ccccc21	inconclusive: 44.7 µM [inhibitor, partial curve, poor fit]
O=C(c1noc2c1CCCC2)N1CCN(c2cccc(Cl)c2)C(=O)C1	inactive
COc1ccccc1CCC(=O)N[C@@H]1CN(c2ccncn2)C[C@H]1CN(C)C	inactive
O=C1N[C@@H]2CCN(S(=O)(=O)Cc3ccccc3)[C@@H]2C(=O)N1c1ccc(F)cc1	inactive
O=C(N[C@H]1CO[C@H]2[C@@H]1OC[C@@H]2n1cc(CC2CCCCC2)nn1)C1CCCCC1	inconclusive: 100 µM [inhibitor, partial curve, poor fit]
COCC[C@]1(O)CCN(C(=O)Cc2coc3cc(C)c(Cl)cc23)C[C@H]1C	inconclusive: 44.7 µM [inhibitor, partial curve]
c1ccc(Nc2cc3c(cn2)NCCN(Cc2ccsc2)C3)cc1	inconclusive: 56.2 µM [inhibitor, partial curve, poor fit]
CN(Cc1ccc(F)cc1)c1ccc2ncc(Nc3ccncc3)n2n1	inconclusive: 44.7 µM [inhibitor, partial curve, poor fit]
CC(C)(C)c1ccc(C(=O)N2CCC3(C2)NC(=O)N(Cc2ccccc2)C3=O)cc1 (stereo not given)	inconclusive: 70.8 µM [inhibitor, partial curve, poor fit]

Structure (SMILES)	Potency
COc1cccc(CC(=O)N2CCCn3nc(C)c(-c4ccccc4C(C)C)c32)c1	inconclusive: 22.4 µM [inhibitor, full curve, poor fit]
CC(=O)N1CCC(N2CCC[C@H]2c2nc(-c3ccc(-c4cncnc4)nc3)no2)CC1	inactive
CN1CCC2(C1)CN(CC1CCOCC1)c1ccc(C(=O)NCc3ccccc3)cc12 (stereo not given)	inconclusive: 100 µM [inhibitor, partial curve]
Cc1ccccc1C(=O)N1CC(C(=O)N(C)C)C2(CCOCC2)C1 (stereo not given)	inactive
CN1CCC(N2CC[C@H](c3nc4ccccc4s3)C2)CC1	active: 35.5 µM
Cc1ccc(C(=O)N2CCC3(CC2)[C@H](O)C[C@@H]3OCCO)s1	inactive
Cn1nc(C(=O)N2CCN(c3cc(-c4ccccc4)[nH]n3)CC2)c2ccccc21	inconclusive: 44.7 µM [inhibitor, partial curve, poor fit]
O=C(Nc1ccc(=O)n2c1[C@@H]1C[C@@H](CN(S(=O)(=O)c3ccccc3)C1)C2)c1ccc2c(c1)OCO2	inconclusive: 79.4 µM [inhibitor, single point]
CCOC(=O)[C@@H]1[C@@H](OC(N)=O)C(=O)N(Cc2ccccc2)C12CCN(C(=O)C1CC1)CC2	inconclusive: 63.1 µM [inhibitor, partial curve, poor fit]
CN1C(=O)CCC2(CNC(=O)C3(S(=O)(=O)c4ccc(Cl)cc4)CC3)CCC=C12 (stereo not given)	inactive
O=C1Nc2ccccc2CC12CCN(Cc1ccc(Cl)cc1)CC2	inconclusive: 50.1 µM [inhibitor, partial curve, poor fit]
Cc1ccc(-c2cc3c(=O)n(CCNC(=O)Cc4cccc(F)c4)ccn3n2)cc1C	inconclusive: 39.8 µM [inhibitor, partial curve]
CN(Cc1ccc(-c2ccccc2)cc1)C(=O)c1cccc(Cl)c1	inconclusive: 79.4 µM [inhibitor, partial curve, poor fit]
COc1ccc(-c2cc(N3CCCN(C(=O)c4ccc(F)c(Cl)c4)CC3)n[nH]2)cc1	inconclusive: 50.1 µM [inhibitor, partial curve, poor fit]
CSCCNC(=O)c1ccc2nnc(-c3cccc(OC(F)(F)F)c3)n2c1	inconclusive: 56.2 µM [inhibitor, partial curve, poor fit]
CC1=C[C@@H](CNCc2ccccc2O)[C@H](C(C)C)C[C@H]1Cc1nc2c(C)cccc2[nH]1	inconclusive: 22.4 µM [inhibitor, full curve, poor fit]
CC1=C[C@@H](CNCc2ccccc2F)[C@H](C(C)C)C[C@H]1Cc1nc2c(C)cccc2[nH]1	active: 28.2 µM
CNC(=O)c1cc(C)nc2onc(C3CCN(C(=O)Cc4ccc(OC)cc4)C3)c12 (stereo not given)	inactive
Cc1cc(=O)n(CC(=O)Nc2ccccc2F)c(-c2ccccc2)n1	inactive
COc1ccc(C(=O)NCCn2ccn3nc(-c4ccc(F)cc4)cc3c2=O)cc1OC	inconclusive: 50.1 µM [inhibitor, partial curve, poor fit]
COc1ccc(Cc2nnc3ccc(C(=O)NCc4ccc5c(c4)OCO5)cn23)cc1	inactive
